# Assay results taken from the supplement of paper PMC12632987.
# In all, about 2,300 sequences were measured (“median log2 fold change of GCK-ALFA target abundance (FLAG IP / Myc IP barcode read proportion)”: median about 0.095, lowest 2% from about -0.47 on). The list shows a part of the results.
# B1: LC3A_74_2069 (protein)
# chain: SLTLEEVEEAERNIAILKAALEYLSELGLISEEEKKEYEETIKKLKELLKKQGQLTEAVEGGIEVEAELIRLRLEGKVEEMKELAKEALERAKELLKKAE
# B2: LC3A_3_1836 (protein)
# chain: LEEAEAALLEELKAAGHSEETLEAVRATLEALRARGYEEAARTFIELLRENVHLPSELLLELAEEVLELVETEDLSEEELTEEIRRLFRLYRNDYEIEEL
# B3: LC3A_3_1665 (protein)
# chain: MEEEIEKALKYLKEKGKSEETLEAVEKAAKALKEKGYEETLKTFIELLKKMSHLSDEILLDFAKDVLELVKTSDLSEEEMKKKIKELATIAENEAEIEEL
# B4: LC3A_45_1932 (protein)
# chain: MYEGELDVLVPKELAEKAYEIILKKAEELEKKYGDKIKVDKEVLEKSYEESKDEEDVYFRLIIYSKDKDLVLDALDEIEDELEEELDGKVAAIISVKEVE
# B5: LC3A_28_890 (protein)
# chain: SEALESAEKALAQVKAAVAAGDQSPLVLEVKAPSNEEDVEKFIKLLEEIAKAAAALSGVTIIIDISEEVSEENKNKIIDKAEELEKKYPNVTVIIALPES
# B6: LC3A_28_825 (protein)
# chain: MEAEEIIKKLKEQAEAAKAAGEPAVIVVDINEKITEEEAKKIGEAMKEAAEKLKDLPGTAIIINLNVKQSQEVLDILMETADEIEEKYPNITVIIALPED
# B7: LC3A_3_1759 (protein)
# chain: MEEFLEEARERLRAAGADEELLEKAERALRLLLERGLEETAREFVEALLTLLAKSKELALELAEDVLRLLETSTLSPEELAEEVRSLINAALSEAEIEEL
# B8: LC3A_147_516 (protein)
# chain: YKVTVEIDLLLKNSKELAEEMAEEIKEYLESKGYEVEVELEFEEDEDGTIFAKITITVKAETKEEAEKVANEVLEKIDELLEKYKDKILGALISVSIEEE
# B9: LC3A_147_394 (protein)
# chain: YLLEITIDLIVKNAEEEIIKEIEELVEELKEKGYEVELEVKKEKLDEETTYVEITIKVRAETLEEAQAARDEILDHLDEIEEKYKDKILGSLISSEIIEE
# B10: LC3A_3_1445 (protein)
# chain: SEELKEEGLELLKERGASEETIEAAERLFDALEEKGYLEAQKLVLEWLKKVKDASDEFLLEAFEDLLELVETSDLSPEEMKKLIEEELSSFESELEIIEL
# B11: LC3A_3_1590 (protein)
# chain: MEELVKENLERLRKAGLSEEVLEAARKVLEALAERGFEEAMKVLTEELLELKDVDPEVLLAMLEEILEKVETEDLNEEEIIKEIKEEARVARLDAEIIEL
# B12: LC3A_3_1749 (protein)
# chain: MEEILEEVRKLLEEQGKSEETIEAALKLVKLLLERGFEEAVKTFIELLKESKDLPDEILLDMIKDILEYVESNDINEEEAIEKIKEEFKIAKSESEIIEL
# B13: LC3A_free_26_2150 (protein)
# chain: DEFIDIYDLDKAIELLEELLKLLEEDEEASEELKKLAKEALEEVKKETLESLEKAAELLEKLLKLLEADESLDPEKKAKLIELAKKALEHVKRNIEIMKS
# B14: LC3A_3_1447 (protein)
# chain: AEELREEALELLRERGASPETIAAAEELFDALIEKGYLEAMELVLEFLKEVKDASDEFLLETFKDLLELVLTSDDSPEEMKKKIEEELSAFRSELEIEEL
# B15: LC3A_3_1508 (protein)
# chain: KEELLKELREILEKMGASEEVIEAFLEAAERLLARGYEEAAKTFLELVKEMKDLSNEHLLAFAEEVLALLDAGGLSEEELIERIKEIARTTRADAEIEEL
# B16: LC3A_141_365 (protein)
# chain: MVVELKYEFEADTIEEAVEKMEEIEKDVLEKAKEANAKTAEIELKIEYTSKDGKEKKTIEIKDETTFENLELVLDGLLVEVASYASKGKVKVELKVKLKT
# B17: LC3A_17_559 (protein)
# chain: MEKLKKELEKLLKEAEKLIKELEKYDPEAAKELKELLEKAKKYLEEGKLKEALKTLKELAEKAADIWDSLEHIDPQKMSILSMEAEGLLIEAELLEDKLE
# B18: LC3A_132_257 (protein)
# chain: SEEKKKKFLEEAKALIDAVVAALKAGQDPSPYIKKLDELADRAAEELSLEELEELVEEAKAYADARFAEELDPNNPEARRARDIIEMILDSALIEAELRA
# B19: LC3A_28_862 (protein)
# chain: SATEESIKKAREELKEALAKGEPKVITVTVTEDVTDEEVDRVIALIDEAAEASKKVPGLALVIDFDGEIDPEKLQRILDRAEEAEARNPNLTVIFALDEK
# Molecular target: MAP1LC3A, Q9H492
# Test: median log2 fold change of GCK-ALFA target abundance (FLAG IP / Myc IP barcode read proportion) (log2 ratio); each designed protein is fused to an ALFA-tag nanobody in HEK293 cells to bring the named protein to FLAG-tagged glucokinase (GCK); Myc marks an untargeted standard; higher = target protein stabilised (more abundant)
# Details: target protein: 3xFLAG-MCP-GCK-ALFA reporter; HEK293 landing pad (RPLP)
# Summary of the method: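 The readout is target abundance, the per-binder median log2 ratio of FLAG to Myc barcode read proportions. It came from HEK293 landing-pad cells carrying a recombined ALFA-nanobody-fused binder library, induced with 2 μg mL^−1 doxycycline and transfected with a plasmid for a FLAG-tagged target and a Myc-tagged standard. After 48 h, lysates were immunoprecipitated with anti-FLAG and anti-Myc, and circular RNA barcodes were reverse transcribed, amplified and sequenced. Each barcode needed a proportion of at least 10^−7 in both replicates and each binder at least 3 barcodes per replicate, a pseudocount of 10^−6 was added, and the replicates were pooled.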
row,Binder,median log2 fold change
1,B1,0.214
2,B2,-0.0316
3,B3,0.103
4,B4,0.239
5,B5,-0.252
6,B6,0.0111
7,B7,0.245
8,B8,-0.0638
9,B9,-0.0114
10,B10,0.105
11,B11,0.114
12,B12,0.205
13,B13,0.344
14,B14,0.173
15,B15,0.339
16,B16,0.379
17,B17,0.00231
18,B18,0.39
19,B19,-8.58e-05
